Results on 91 molecules are retold here after PMC4336329 (PLoS ONE, 2015).

Molecules are shown by their SMILES. The campaign covered roughly 310,000 compounds. About 14,000 (4.5%) showed an effect of 50% or more. The effect is printed as a negative number. This is one part of the list.
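Also: peak tail current of the secondary pulse compared with the same well before compound.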

The assay deals with human ether-à-go-go-related gene (hERG) potassium channel (human, UniProt Q12809). The experiment in a line: primary screen, population patch clamp on CHO cells stably expressing hERG.
human ether-à-go-go-related gene (hERG) potassium channel, sequence (Q12809 whole entry, looked up): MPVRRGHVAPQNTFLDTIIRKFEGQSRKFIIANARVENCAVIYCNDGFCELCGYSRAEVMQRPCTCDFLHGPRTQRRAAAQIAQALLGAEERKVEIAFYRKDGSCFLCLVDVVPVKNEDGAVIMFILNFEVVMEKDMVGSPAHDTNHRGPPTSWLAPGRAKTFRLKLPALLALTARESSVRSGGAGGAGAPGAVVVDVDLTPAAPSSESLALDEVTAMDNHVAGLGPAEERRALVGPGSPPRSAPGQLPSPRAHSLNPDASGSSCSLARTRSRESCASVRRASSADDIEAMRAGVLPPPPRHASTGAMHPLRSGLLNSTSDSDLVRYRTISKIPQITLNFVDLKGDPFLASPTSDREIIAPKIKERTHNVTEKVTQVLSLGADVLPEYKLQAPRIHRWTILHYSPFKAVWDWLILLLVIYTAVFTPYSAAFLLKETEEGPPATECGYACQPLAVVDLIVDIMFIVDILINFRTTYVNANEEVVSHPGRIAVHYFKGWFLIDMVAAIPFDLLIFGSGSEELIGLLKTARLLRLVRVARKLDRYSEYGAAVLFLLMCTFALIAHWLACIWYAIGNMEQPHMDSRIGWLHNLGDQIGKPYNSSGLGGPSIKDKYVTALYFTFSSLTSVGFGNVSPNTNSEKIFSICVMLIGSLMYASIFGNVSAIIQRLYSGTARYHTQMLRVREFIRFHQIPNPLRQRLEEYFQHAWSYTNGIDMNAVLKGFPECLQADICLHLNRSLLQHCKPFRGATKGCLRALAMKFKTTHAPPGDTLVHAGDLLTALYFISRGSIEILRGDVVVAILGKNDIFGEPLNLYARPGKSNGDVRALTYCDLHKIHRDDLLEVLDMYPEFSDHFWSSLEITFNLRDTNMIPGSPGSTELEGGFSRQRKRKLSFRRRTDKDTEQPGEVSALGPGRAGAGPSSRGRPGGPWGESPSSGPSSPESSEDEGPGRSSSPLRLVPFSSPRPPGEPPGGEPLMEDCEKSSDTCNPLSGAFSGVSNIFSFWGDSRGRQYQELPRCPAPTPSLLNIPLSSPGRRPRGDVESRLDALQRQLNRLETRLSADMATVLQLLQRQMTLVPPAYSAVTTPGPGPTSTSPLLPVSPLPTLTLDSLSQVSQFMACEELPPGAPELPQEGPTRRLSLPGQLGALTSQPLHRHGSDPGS
As to `O=C(NC1(C(F)(F)F)NC(=O)N(Cc2cccnc2)C1=O)c1ccccc1` (stereo not shown), the “hERG current change (%, negative = inhibition) at 10uM” value came to 6.25%.

Take `COc1cc(OC)cc(C(=O)N[C@H](C(=O)Nc2nc3c(s2)CCCC3)C(C)C)c1`: the “hERG current change (%, negative = inhibition) at 10uM” value was found to be 6.76%. The figure for `COc1ccc(C(=O)NC(=S)NNC(=O)c2ccncc2)cc1Br` is 7.08%; for `CCCN1C2CCCC1CC(NC(=S)Nc1cccc(C)c1C)C2` (stereo not shown) it is 5.16%; for `c1ccn(-c2ncnc3sc4c(c23)CCCC4)c1` it is -14.6%.

As to `CC1Cc2ccccc2N1C(=O)COc1ccc2c(c1)OCO2` (stereo not shown), the “hERG current change (%, negative = inhibition) at 10uM” value was -3.18%.

For the molecule `O=C(Cn1cnc2cc([N+](=O)[O-])ccc2c1=O)Nc1ccc2c(c1)OCO2`, the “hERG current change (%, negative = inhibition) at 10uM” value is given as 4.33%. For `NS(=O)(=O)c1ccc(CCNC(=O)c2ccc(OCC3CCCO3)cc2)cc1` (stereo not shown) the value was 19.9%; for `O=C(CN(Cc1ccc(Cl)cc1)C(=O)CN1C(=O)COc2ccccc21)NC1CCCC1`, 15%; for `CCC(C)c1ccc2oc(-c3ccc(NC(=O)Cn4cnc5c(=O)n(C)c(=O)n(C)c54)cc3)nc2c1` (stereo not shown), 6.55%.

As to `O=C(Nc1ccccc1)c1[nH]ncc1[N+](=O)[O-]`, the “hERG current change (%, negative = inhibition) at 10uM” value was -11.8%. The figure for `c1ccc2c(c1)C(=NCC1CCCO1)NC2=NCC1CCCO1` (stereo not shown) is -22.2%; for `O=C(O)CCCN=Cc1c(O)c2ccccc2oc1=O` it is 10.8%; for `Cc1nn(C)c(C(=O)Nc2ccc(Br)cc2F)c1Br` it is 24.9%. Consider `Cn1nc(C(=O)NC2CCCCC2)c2ccccc2c1=O`, for which the “hERG current change (%, negative = inhibition) at 10uM” value is -15.3%. The figure for `O=C(Nc1cccc(-c2cn3ccccc3n2)c1)c1cccs1` is -19.9%.

For `O=S(=O)(c1ccccc1)N1CCN(c2cc(-c3ccccc3)nc3ncnn23)CC1`, the “hERG current change (%, negative = inhibition) at 10uM” value is given as -11.8%. The figure for `N#CC1(C#N)C(c2ccccc2)OC23CCCCCC2C1(C#N)C(=N)O3` (stereo not shown) is -23.4%; for `Cc1cc(/C=N/NC(N)=S)c(O)c(/C=N/NC(N)=S)c1` it is 9.43%; for `Cc1ccc(C)c(OCCCCn2ccnc2)c1` it is -23%.

In the case of `O.[O-][N+]12CCN(CC1)c1ccccc12`, the “hERG current change (%, negative = inhibition) at 10uM” value amounted to 16.6%.

In the case of `O=c1cccccc1NCc1ccccc1`, the “hERG current change (%, negative = inhibition) at 10uM” value is given as -17.3%. The figure for `COC(=O)c1c(C)oc(C)c1S(=O)(=O)Nc1ccc(C(C)C)cc1` is 0.847%; for `O=C(CN(C(=O)CCC(=O)Nc1nccs1)c1ccc(F)cc1)NCc1ccc(F)cc1` it is 16.8%. For `Cc1ccc(/C=N/NC(=O)c2cccc(S(=O)(=O)Nc3cccc(Cl)c3)c2)o1` the value was 12.3%; for `COc1cccc(C(O)c2nc3ccccc3n2C(C)C)c1OC` (stereo not shown), 16.6%.

Turning to `COc1c(F)c(F)c(C(=O)Nc2c(C)cc(Br)cc2C)c(F)c1F`, the “hERG current change (%, negative = inhibition) at 10uM” value came out at 11.2%. For `C/C(=N\Nc1cc(C)nc(-c2ccccc2)n1)c1cccc([N+](=O)[O-])c1` the value was 9.2%.

As for `CCC(=O)NC(c1cccc([N+](=O)[O-])c1)c1c(OC(C)=O)ccc2ccccc12` (stereo not shown), the “hERG current change (%, negative = inhibition) at 10uM” value is reported as -11.2%. The figure for `O=C(O)CCN(Cc1ccccc1)S(=O)(=O)c1c(Cl)cccc1Cl` is 8.15%.

In the case of `O=C(C[N+]12CCC(CC1)C(CO)C2)c1ccc([N+](=O)[O-])cc1.[Br-]` (stereo not shown), the “hERG current change (%, negative = inhibition) at 10uM” value came to 16.8%. For `Cc1cccc(OC(C)c2ccnc3nc(/N=C/N(C)C)nn23)c1` (stereo not shown) the value was -10.7%. The figure for `CCC(C(=O)O/N=C(\N)c1ccc(Cl)cc1)c1ccccc1` (stereo not shown) is -17.2%; for `Cc1ccccc1NC(=O)/C=C/c1ccc([N+](=O)[O-])s1` it is 6.13%.

On to `O=C(CCS(=O)(=O)c1ccc(Br)cc1)N1CCN(c2ccc(F)cc2)CC1`, for which the “hERG current change (%, negative = inhibition) at 10uM” value is recorded as -66.3%. The figure for `CCOC(=O)c1c(CC(C)C)csc1/N=C/C1=C(O)CCCC1=O` is 12.9%.

On to `CC(C)(C)c1ccc(C(=O)c2c[nH]c(C(=O)NCCc3ccccn3)c2)cc1`, for which the “hERG current change (%, negative = inhibition) at 10uM” value was found to be 15.1%. The figure for `COC(=O)CCCNC(=O)c1ccccn1` is 4.61%. `CN(CC(=O)Nc1ccccc1Cl)C(=O)c1cc(=O)[nH]c2ccccc12`: the “hERG current change (%, negative = inhibition) at 10uM” value was 2.52%. For the molecule `CN1CCC(OC(=O)c2ccccc2Cl)CC1.Cl`, the “hERG current change (%, negative = inhibition) at 10uM” value is 0.522%. For `CC(C)(C)c1ccc(NNC(=O)C2CCC2)cc1` the value was 14.4%; for `CCCN(CC(=O)Nc1ccccc1C)C(=O)c1cc(=O)[nH]c2ccccc12`, 4.86%.

Turning to `COC1=CC(=O)O[C@@H](/C=C/c2ccccc2)C1`, the “hERG current change (%, negative = inhibition) at 10uM” value is recorded as -11.4%. For `CCCCC(=O)Nc1ccccc1C(C)C` the value was 14.5%; for `CCn1c(SCC(=O)NNC(=O)c2ccc(C)cc2)nnc1-c1ccco1`, 18.2%; for `CNC(=O)/C=C1\NC(C)(C)Cc2c1ccc1ccccc21`, -17.3%. The figure for `COC(C(=O)Nc1ccc(F)cc1)c1ccccc1` (stereo not shown) is -0.691%; for `O=C(NCCCN1CCN(c2cccc(Cl)c2)CC1)c1nc(-c2ccncc2)no1` it is -63.2%. The figure for `CCOc1ccc(Cl)cc1S(=O)(=O)N1CCC(C(=O)NCc2ccco2)CC1` is -37%; for `O=C(OCC(=O)N1CCCC1)c1ccccc1OCc1ccccc1` it is -1.81%.

For the molecule `c1ccc(-c2nnsc2Sc2ccccn2)cc1`, the “hERG current change (%, negative = inhibition) at 10uM” value is 3.35%. The figure for `COCC(=O)N1CCCC(C(=O)c2ccc(C(F)(F)F)cc2)C1` (stereo not shown) is -0.113%; for `O=C(Nc1nccs1)c1cnccn1` it is -6.74%; for `Cc1ccc(Cn2nc(C)cc2C(=O)Nc2ccc(Cl)cc2)cc1` it is 14.3%. For `CN(Cc1cn(C)nc1-c1cccc(Cl)c1)CC1CCCCO1` (stereo not shown) the value was -15.6%; for `Cc1ccc(NC(=O)CSc2nnc(-c3ccccn3)n2C)cc1`, -28.1%; for `O=C(Nc1cccnc1)c1cc([N+](=O)[O-])ccc1Cl`, -0.51%.

On to `CCC(=O)N1CCN=C1SCc1c(F)cccc1Cl`, for which the “hERG current change (%, negative = inhibition) at 10uM” value is reported as -15.4%.

With `CC(=O)Nc1cccc(-c2nn[nH]n2)c1`, the “hERG current change (%, negative = inhibition) at 10uM” value is recorded as 7.82%. For `CC(=O)c1c(C)[nH]c(C(=O)COC(=O)CNS(=O)(=O)c2ccccc2)c1C` the value was -2.66%; for `CCOc1ccc(NC(=O)c2ccc(NC(=O)CN3C(=O)C(=O)N(CC(C)C)C3=O)cc2)cc1`, -7.16%. The figure for `O=C(Nc1ccc(S(=O)(=O)N2CCOCC2)cc1)c1cccnc1` is 2.78%; for `COc1ccc(Br)cc1CNC(=O)Cc1cccs1` it is 8.98%; for `CCN(CC)CCNCC(O)(c1ccc(Cl)cc1)c1ccc(Cl)cc1` it is -82.4%. `CCNc1nc(OC)nc(Oc2ccc(=O)n(-c3ccccc3)n2)n1`: the “hERG current change (%, negative = inhibition) at 10uM” value is reported as 7.99%. As to `O=C(COC(=O)c1ccccc1N1C(=O)C2C3CCC(C3)C2C1=O)c1ccccc1` (stereo not shown), the “hERG current change (%, negative = inhibition) at 10uM” value was found to be 1.28%.

As to `COc1cc([N+](=O)[O-])ccc1NC(=S)N1CCOCC1`, the “hERG current change (%, negative = inhibition) at 10uM” value is recorded as -0.54%. The figure for `Cc1ccc(-c2nc3ccccc3[nH]2)cc1NC(=O)c1sc2ccccc2c1Cl` is 15.9%; for `Cc1noc(C)c1CSCC(=O)Nc1cc(Cl)ccc1N1CCOCC1` it is -11.7%; for `O=S(=O)(N/N=C\C=C\c1ccccc1)c1ccc(Br)cc1` it is -4.52%.

As for `COc1cccc(C2/C(=C(/O)c3cnn(-c4ccccc4)c3C)C(=O)C(=O)N2CCN(C)C)c1OC` (stereo not shown), the “hERG current change (%, negative = inhibition) at 10uM” value turned out to be 17%. For `CNC(=O)c1oc(-c2ccc(Cl)cc2)nc1C`, the “hERG current change (%, negative = inhibition) at 10uM” value came out at 20.6%. As to `CC(C)CC(NS(=O)(=O)c1ccc2c(c1)oc(=O)n2C)C(=O)N1CC=C(c2ccccc2)CC1` (stereo not shown), the “hERG current change (%, negative = inhibition) at 10uM” value is given as -7.69%. In the case of `COC(=O)c1cn(Cc2ccccc2C)nn1`, the “hERG current change (%, negative = inhibition) at 10uM” value turned out to be 1.17%. The figure for `CCSc1nnc(NC(=O)c2ccco2)s1` is 8.1%. The figure for `COc1ccc2[nH]c(C(=O)N(C)c3ccc(F)cc3F)cc2c1` is 24.2%; for `O=C(Nc1ccccc1Cl)C1C(c2ccccc2)C1(Cl)Cl` (stereo not shown) it is 11.2%. The figure for `CC(=O)Nc1cccc(NC(=O)CSc2nnnn2C(C)C)c1` is 9.22%; for `Nc1ncnc(Nc2ccccc2)n1` it is -3.59%.

`COc1cccc(C2CC(=O)Nc3cc(OC)c(OC)c(OC)c32)c1OC` (stereo not shown): the “hERG current change (%, negative = inhibition) at 10uM” value is listed as -19.6%.

In the case of `Cc1ccc(NC(=O)c2ccc3c(c2)C(=O)N(c2ccccc2C)C3=O)nc1`, the “hERG current change (%, negative = inhibition) at 10uM” value amounted to 4.99%. For `CCOC(=O)c1cccc(NC(=O)CSc2nncn2-c2ccccn2)c1` the value was -2.28%. Consider `O=C(c1cc(-c2ccccc2Cl)nc2ccc(Br)cc12)N1CCN(c2ccccn2)CC1`, for which the “hERG current change (%, negative = inhibition) at 10uM” value is -11.3%. The figure for `Cn1cc(S(=O)(=O)NC2CCCC2)c(=O)n(C)c1=O` is -5.74%. For `COc1ccc(N(C(=O)c2ccco2)S(=O)(=O)c2cccc([N+](=O)[O-])c2)cc1` the value was 23.4%; for `C#CCOC(=O)c1ccccc1C(=O)OCC#C`, 3.64%; for `CCCOc1ccc(C(=O)N(CC(C)C)c2c(N)n(Cc3ccccc3)c(=O)[nH]c2=O)cc1`, -11.7%. For `O=S(=O)(c1ccc(S(=O)(=O)N2CCN(C/C=C/c3ccccc3)CC2)cc1)N1CCCC1` the value was 11.6%; for `COc1cc(C2CC(=O)c3cnc(N)nc3C2)cc(OC)c1OC` (stereo not shown), 9.98%.

For the molecule `CCc1ccc(N2C(=O)C(Cl)=C(N3CCOCC3)C2=O)cc1`, the “hERG current change (%, negative = inhibition) at 10uM” value is 2.6%. For `N#CC1=C(N)Oc2n[nH]c(-c3cccs3)c2C1C1CCCCC1` (stereo not shown) the value was 8.73%.
